This note sets out measurements from PMC5426793.

The chains behind the UniProt entries cited, without tags or fusion partners. Where a name states a change or a piece, a line headed by the entry shows the natural chain unless it says otherwise.
UniProt O43791: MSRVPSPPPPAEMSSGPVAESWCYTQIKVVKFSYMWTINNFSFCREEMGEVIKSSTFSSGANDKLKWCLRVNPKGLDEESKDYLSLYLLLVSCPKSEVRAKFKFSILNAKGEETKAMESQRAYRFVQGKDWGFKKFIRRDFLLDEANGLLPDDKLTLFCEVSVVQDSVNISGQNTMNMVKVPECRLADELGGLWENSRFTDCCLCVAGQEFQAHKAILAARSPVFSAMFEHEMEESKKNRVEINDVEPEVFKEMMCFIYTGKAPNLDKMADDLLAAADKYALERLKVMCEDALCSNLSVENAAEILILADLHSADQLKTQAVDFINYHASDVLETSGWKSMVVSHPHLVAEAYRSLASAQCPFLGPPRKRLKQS
UniProt Q27J81: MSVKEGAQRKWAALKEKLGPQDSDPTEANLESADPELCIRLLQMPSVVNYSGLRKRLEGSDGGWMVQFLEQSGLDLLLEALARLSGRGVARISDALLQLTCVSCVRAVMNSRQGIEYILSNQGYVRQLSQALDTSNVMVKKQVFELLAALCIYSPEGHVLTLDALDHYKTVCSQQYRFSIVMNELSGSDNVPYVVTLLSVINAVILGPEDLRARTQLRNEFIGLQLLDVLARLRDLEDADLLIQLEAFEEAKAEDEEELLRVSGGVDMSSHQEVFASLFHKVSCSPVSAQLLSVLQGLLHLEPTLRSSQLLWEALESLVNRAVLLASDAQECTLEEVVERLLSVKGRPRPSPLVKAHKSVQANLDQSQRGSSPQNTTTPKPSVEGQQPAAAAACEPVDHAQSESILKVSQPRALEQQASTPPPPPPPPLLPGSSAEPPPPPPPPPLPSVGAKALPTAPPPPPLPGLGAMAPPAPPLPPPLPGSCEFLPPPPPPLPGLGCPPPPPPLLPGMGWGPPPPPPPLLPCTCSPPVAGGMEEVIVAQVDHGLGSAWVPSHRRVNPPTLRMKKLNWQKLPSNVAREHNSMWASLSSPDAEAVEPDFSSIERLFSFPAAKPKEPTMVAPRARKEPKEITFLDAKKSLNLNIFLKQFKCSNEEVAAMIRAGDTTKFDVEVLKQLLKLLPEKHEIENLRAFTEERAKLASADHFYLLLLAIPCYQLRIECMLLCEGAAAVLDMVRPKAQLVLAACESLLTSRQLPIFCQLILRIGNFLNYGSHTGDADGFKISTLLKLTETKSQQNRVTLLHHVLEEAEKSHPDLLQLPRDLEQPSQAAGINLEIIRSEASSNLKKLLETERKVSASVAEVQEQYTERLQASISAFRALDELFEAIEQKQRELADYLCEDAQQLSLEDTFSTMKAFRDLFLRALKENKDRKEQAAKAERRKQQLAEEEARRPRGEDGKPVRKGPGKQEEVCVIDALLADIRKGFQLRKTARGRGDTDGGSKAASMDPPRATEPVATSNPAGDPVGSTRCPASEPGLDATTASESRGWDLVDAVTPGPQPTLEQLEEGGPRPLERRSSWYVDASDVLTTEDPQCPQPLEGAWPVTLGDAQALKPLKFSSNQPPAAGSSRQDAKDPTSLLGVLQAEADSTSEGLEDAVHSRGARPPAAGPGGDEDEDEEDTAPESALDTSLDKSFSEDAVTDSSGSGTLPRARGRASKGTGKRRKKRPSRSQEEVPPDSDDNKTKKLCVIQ
UniProt P10275: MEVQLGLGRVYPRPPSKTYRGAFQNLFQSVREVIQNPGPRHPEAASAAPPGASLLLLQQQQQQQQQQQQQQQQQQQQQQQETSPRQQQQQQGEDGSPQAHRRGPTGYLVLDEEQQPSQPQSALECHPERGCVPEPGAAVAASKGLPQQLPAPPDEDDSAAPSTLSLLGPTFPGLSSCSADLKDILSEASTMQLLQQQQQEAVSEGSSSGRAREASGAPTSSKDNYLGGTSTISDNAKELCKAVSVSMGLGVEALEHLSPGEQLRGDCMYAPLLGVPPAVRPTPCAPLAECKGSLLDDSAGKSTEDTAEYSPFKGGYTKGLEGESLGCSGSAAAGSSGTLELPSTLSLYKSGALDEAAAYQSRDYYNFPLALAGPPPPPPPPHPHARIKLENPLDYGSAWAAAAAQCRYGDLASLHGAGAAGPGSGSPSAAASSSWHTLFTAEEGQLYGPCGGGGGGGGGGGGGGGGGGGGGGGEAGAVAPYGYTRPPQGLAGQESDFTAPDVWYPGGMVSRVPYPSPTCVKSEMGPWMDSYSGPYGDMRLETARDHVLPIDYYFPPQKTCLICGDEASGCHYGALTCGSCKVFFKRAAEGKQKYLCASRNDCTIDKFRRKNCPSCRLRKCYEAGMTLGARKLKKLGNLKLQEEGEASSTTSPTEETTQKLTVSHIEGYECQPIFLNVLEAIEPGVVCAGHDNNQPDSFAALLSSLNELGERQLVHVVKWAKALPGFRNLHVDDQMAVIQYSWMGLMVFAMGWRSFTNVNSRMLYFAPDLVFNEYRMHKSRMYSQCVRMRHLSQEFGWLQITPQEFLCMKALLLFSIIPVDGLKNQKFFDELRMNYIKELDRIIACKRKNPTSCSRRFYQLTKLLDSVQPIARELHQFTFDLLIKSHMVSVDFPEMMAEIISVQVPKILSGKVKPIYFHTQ
UniProt O15131: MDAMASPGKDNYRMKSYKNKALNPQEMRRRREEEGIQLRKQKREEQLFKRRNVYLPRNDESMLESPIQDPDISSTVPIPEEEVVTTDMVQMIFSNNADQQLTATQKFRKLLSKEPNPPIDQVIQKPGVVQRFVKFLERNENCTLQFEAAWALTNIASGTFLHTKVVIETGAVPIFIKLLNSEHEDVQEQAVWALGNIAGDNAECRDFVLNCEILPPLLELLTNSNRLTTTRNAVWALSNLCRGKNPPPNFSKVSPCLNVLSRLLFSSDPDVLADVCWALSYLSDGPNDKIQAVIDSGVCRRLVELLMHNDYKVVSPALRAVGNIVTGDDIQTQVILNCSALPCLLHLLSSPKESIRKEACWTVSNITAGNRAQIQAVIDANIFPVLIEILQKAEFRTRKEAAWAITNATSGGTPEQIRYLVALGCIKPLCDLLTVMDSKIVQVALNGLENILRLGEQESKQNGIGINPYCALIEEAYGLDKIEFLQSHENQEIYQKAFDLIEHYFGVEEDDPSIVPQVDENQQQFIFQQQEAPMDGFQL
UniProt P46940: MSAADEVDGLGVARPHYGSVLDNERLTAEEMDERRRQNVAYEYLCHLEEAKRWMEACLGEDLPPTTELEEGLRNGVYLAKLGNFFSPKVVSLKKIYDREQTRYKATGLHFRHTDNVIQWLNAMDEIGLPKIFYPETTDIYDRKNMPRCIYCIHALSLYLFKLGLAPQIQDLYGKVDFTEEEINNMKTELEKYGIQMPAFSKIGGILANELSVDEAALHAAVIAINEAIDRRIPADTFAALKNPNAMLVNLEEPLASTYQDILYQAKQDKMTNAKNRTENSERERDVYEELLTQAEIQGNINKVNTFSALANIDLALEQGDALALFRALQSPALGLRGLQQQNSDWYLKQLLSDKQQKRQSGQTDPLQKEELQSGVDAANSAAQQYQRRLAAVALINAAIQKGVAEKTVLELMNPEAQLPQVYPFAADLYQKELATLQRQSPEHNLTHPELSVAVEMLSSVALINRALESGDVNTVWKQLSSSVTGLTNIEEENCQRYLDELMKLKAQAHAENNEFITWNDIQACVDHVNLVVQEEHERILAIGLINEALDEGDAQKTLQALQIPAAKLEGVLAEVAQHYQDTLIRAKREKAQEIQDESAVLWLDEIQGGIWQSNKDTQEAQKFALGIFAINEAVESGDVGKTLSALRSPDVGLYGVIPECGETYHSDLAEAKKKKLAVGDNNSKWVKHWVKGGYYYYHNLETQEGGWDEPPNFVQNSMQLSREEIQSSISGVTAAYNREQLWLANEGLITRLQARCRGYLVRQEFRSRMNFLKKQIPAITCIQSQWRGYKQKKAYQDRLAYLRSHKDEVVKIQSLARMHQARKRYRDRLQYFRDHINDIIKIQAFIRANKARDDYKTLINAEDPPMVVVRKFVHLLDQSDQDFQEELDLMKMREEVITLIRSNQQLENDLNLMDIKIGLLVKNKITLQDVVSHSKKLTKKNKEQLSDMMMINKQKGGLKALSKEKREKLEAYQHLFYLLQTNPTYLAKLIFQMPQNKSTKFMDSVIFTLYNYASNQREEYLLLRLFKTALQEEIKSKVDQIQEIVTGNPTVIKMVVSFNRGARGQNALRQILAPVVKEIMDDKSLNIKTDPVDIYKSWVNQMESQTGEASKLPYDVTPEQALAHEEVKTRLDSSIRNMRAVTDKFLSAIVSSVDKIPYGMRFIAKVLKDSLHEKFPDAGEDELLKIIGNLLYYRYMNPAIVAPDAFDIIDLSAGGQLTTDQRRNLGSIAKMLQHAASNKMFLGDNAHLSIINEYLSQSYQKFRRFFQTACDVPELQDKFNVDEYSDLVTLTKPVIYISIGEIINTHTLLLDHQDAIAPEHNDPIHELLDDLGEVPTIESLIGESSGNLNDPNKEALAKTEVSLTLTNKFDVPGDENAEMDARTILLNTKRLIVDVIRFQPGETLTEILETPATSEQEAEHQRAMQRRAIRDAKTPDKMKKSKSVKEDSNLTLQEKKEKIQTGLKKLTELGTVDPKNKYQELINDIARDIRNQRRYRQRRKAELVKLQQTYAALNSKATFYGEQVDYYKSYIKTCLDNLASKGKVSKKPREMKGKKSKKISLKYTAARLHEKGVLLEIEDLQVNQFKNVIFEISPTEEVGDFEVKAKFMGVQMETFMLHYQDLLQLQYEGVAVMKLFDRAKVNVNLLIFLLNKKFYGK

No constants are given. Whether binding was seen depends on the method and setting. In cells and extracts the contact can be indirect. Some entries that bind do so weakly or less than the wild type.

The target in test [1] is FLAG-SPOP (UniProt O43791). The test is described as follows: co-IP; reciprocal co-IP, 293T cells transfected with FLAG-SPOP and Myc-INF2; Western blot (legend: anti-Myc antibody). In general terms: Immunoblotting shows a protein as a band on a membrane.
The target of test [2] is FLAG-SPOP (lentivirus, LNCaP) (UniProt O43791). The test is described as follows: co-IP; LNCaP cells infected with lentivirus expressing FLAG-SPOP or control, 20 μM MG132 for 8 h before harvesting; anti-FLAG antibody; endogenous partners by Western blot.
Test [3] deals with FLAG-INF2-CAAX (UniProt Q27J81). As to the kind of experiment: co-IP; 293T cells co-transfected with the two plasmids; cell lysates precipitated with anti-FLAG antibody; Western blot.
Test [4] deals with SPOP-F125V (S3D Fig) (UniProt O43791). As to the kind of experiment: co-IP; 293T cells transfected with SPOP constructs; anti-FLAG antibody; endogenous KPNA5 by Western blot.
The target in test [5] is SPOP-F133L (S3D Fig) (UniProt O43791). The test is described as above.
Test [6] addresses FLAG-SPOP (UniProt O43791). Described as above.
In test [7] the target is endogenous INF2 (LNCaP) (human (endogenous in LNCaP)) (UniProt Q27J81). The test is described as follows: co-IP; endogenous proteins, LNCaP cell lysates, IgG or anti-INF2 antibody; Western blot.
The target in test [8] is FLAG-INF2-CAAX (UniProt Q27J81). The test is described as follows: co-IP; 293T cells transfected with wild-type SPOP and INF2, with co-expressed SPOP mutant (Y87N, F125V or F133L); anti-FLAG antibody; Western blot.
The target in test [9] is SPOP-F125V (S3D Fig) (UniProt O43791). The test is described as follows: co-IP; 293T cells co-transfected with the two plasmids; cell lysates precipitated with anti-FLAG antibody; Western blot.
In test [10] the target is SPOP-F133L (S3D Fig) (UniProt O43791). The description is as above.
In test [11] the target is FLAG-SPOP (UniProt O43791). The description is as above.

In the case of Myc-INF2 (from UniProt Q27J81 1-1249), in [1], the binding result was “binds”.

Regarding “androgen receptor (endogenous, LNCaP) (from UniProt P10275 1-920)”, in [2], the binding entry was “binds”.

For “Myc-SPOP K134N (from UniProt O43791 1-374)”, the binding entry in test [3] is reported as “no binding”.

As for “endogenous KPNA5 (293T) (from UniProt O15131 1-539)”, the binding result in test [4], in test [5] and in test [6] was “binds” in each case. “Myc-SPOP Y87N (from UniProt O43791 1-374)”: the binding entry in [3] is recorded as “no binding”. Still for that read-out and setting: the result for “Myc-SPOP F102C (from UniProt O43791 1-374)” reads “no binding”.

As to “Myc-SPOP F125V (from UniProt O43791 1-374)”, the binding result in [3] is reported as “no binding”.

In the case of “Myc-SPOP S119N (from UniProt O43791 1-374)”, the binding entry in [3] is listed as “no binding”. Still for that read-out and setting: to “Myc-SPOP W131G (from UniProt O43791 1-374)” belongs “no binding”. Turning to “endogenous SPOP (LNCaP) (from UniProt O43791 1-374)”, the binding entry in test [7] was “binds”.

As for “Myc-SPOP W131C (from UniProt O43791 1-374)”, the binding entry in test [3] is on record as “no binding”. Take “IQGAP1 (endogenous, LNCaP) (from UniProt P46940 1-1657)”: the binding result in test [7] is “binds”. As to “Myc-SPOP Y87C (from UniProt O43791 1-374)”, in test [3], the binding entry is reported as “no binding”. Myc-SPOP (from UniProt O43791 1-374): the binding result in [8] and in [3] was “binds” each time. For the substance “Myc-SPOP F133V (from UniProt O43791 1-374)”, the binding entry in [3] is reported as “no binding”. “Myc-SPOP F133L (from UniProt O43791 1-374)”: the binding result in test [3] is “no binding”. On to “endogenous INF2 (LNCaP) (from UniProt Q27J81 1-1249)”, for which, in [2], the binding entry is “binds”.

As for “Myc-SPOP K129E (from UniProt O43791 1-374)”, the binding entry in test [3] is listed as “no binding”. On to “overexpressed KPNA5 (from UniProt O15131 1-539)”, for which the binding result in test [9], in test [10] and in test [11] was “binds” in each case.
